According to ChEMBL document CHEMBL4888484, “Replenishing the malaria drug discovery pipeline: Screening and hit evaluation of the MMV Hit Generation Library 1 (HGL1) against asexual blood stage Plasmodium falciparum ,using a nano luciferase reporter read-out” (2022):
Values joined by “and” are separate entries in the source; they are usually repeats but may differ in a detail not shown here. Equal values may be shown once. Among all 150,000 compounds or so, about 540 (0.36%) showed an effect of 50% or more. Some of the results follow.

Tested on: Plasmodium falciparum
Test: Primary screen in NF54 nanoGlo assay, in single point, at 2uM, 72h; a lower Z score goes with more inhibition
Type: functional, Erythrocyte
Conditions: timepoint 72 hour

Row | SMILES | % Inhibition | Z score | % Inhibition (2 µM)
1 | Cc1cc(=O)[nH]c2nnc(-c3ccc(F)cc3)n12 | -4% | 0.47 | –
2 | CCOc1ccc(-c2c(-c3ccccc3)ncn2CCN2CCC(O)CC2)cn1 | -5% | 0.52 | –
3 | CC[C@@](C)(CNC(=O)COCc1cccc(OC)c1)N1CCOCC1 | -4% | 0.5 | –
4 | COC(=O)c1cn(NC(=O)c2n[nH]c(C)c2Cl)cc2c(=O)[nH]nc1-2 | -16% | 2.07 | –
5 | CC(C)Oc1nc(-c2ccc(C(F)(F)F)cc2)n(-c2ccc(NC(=O)c3ccc(F)cc3)cc2)n1 | -2% | 0.34 | –
6 | CC1(C)CC(=O)N(Cc2ccc(C#N)cc2Br)C1=O | -15% | 2.9 | –
7 | Cn1c(=O)c2c(-c3ccc(F)cc3)n3c(c2n(C)c1=O)[C@@H](c1cccc(Cl)c1)Oc1ccccc1-3 | -14% | 1.46 | –
8 | O=C(N[C@H]1CCOC[C@@H]1Oc1ccc(CO)cc1)c1n[nH]c2c1CCCC2 | 10% | -0.89 | –
9 | CC(NC(=O)N1CCOC(C(F)(F)F)C1C)c1ccnc(O)c1 (configuration not stated) | 20% | -2.56 | –
10 | Cc1n[nH]c(C)c1CC(=O)N[C@H]1CCC[C@H]1c1ccccc1 | -8% | 0.93 | –
11 | CCN1CCCn2nc([C@H]3CCCN(Cc4cc(F)cc(F)c4)C3)cc2C1=O | -12% | 2.16 | –
12 | CCN(Cc1ccccc1)C(=O)[C@@H](N)CC(C)C | -16% | 2.02 | –
13 | Cc1nn(S(=O)(=O)c2cccc3nonc23)c(C)c1Br | -1% | 0.11 | –
14 | CC(=O)c1ccc(OCC(=O)N2CCOC3CCCCC32)cc1F (configuration not stated) | -15% | 3.01 | –
15 | Cn1nc(C2CC2)n(C2CCN(C(=O)Cc3ccncc3)CC2)c1=O | -10% | 1.39 | –
16 | COc1ccccc1NC(=O)NC(N)=O | -5% | 0.69 | –
17 | CCOC(=O)N1CCN(C(=O)c2cc(CC)[nH]c(=O)c2)CC1 | -15% | 2.84 | –
18 | CC(C)c1cc(C(=O)N2C[C@@H]3CC[C@H]2CN(C2CCOCC2)C3)n(C)n1 | -2% | 0.16 | –
19 | O=C(O)[C@@H]1CCCN1CC(=O)N1CCC(Cc2ccccc2)CC1 | 0% | -0.02 | –
20 | COc1ccc(-c2cc(OCC(N)=O)c3cc(NC(=O)c4ccc(OC)cc4OC)ccc3n2)cc1 | 9% | -1.49 | –
21 | O=C(O)CCCOc1nc(C2CC2)cc(C(F)(F)F)n1 | -7% | 0.92 | –

Row | SMILES | % Inhibition | Z score | % Inhibition (2 µM)
22 | CCc1nc(-c2ccccc2)nc(N2CCN(S(=O)(=O)CC)CC2)c1Cc1ccc(OC)cc1 | -7% | 1.05 | –
23 | Cc1n[nH]cc1CNc1ccc(CC(=O)N2CCc3ccccc32)cc1 | -15% | 2.09 | –
24 | COc1ccc(-c2cc3c4c(C)n(-c5ccc(C)cc5)c(C)c4c(C)nn3c2)cc1 | -9% | 1.47 | –
25 | O=C1NCCN1CCNc1cc(-c2ccccc2F)nc2ccnn12 | -1% | 0.12 | –
26 | O=C(CCS(=O)(=O)c1ccc(Cl)cc1)Nc1nnc(-c2cccnc2)o1 | -8% | 1.29 | –
27 | CN(C(=O)NC1CCCC1)c1nc2c(s1)CN(Cc1ccccc1)C2=O | 36% | -4.11 | –
28 | Cc1ccc(NC(=O)c2ocnc2C(F)(F)F)c(C)n1 | -4% | 0.78 | –
29 | Cc1cnc(CNC(=O)[C@H]2CCCNCC2)cn1 | 3% | -0.62 | –
30 | Cc1ccc(C)c(N2CCN(C(=O)c3cc4c(-c5cccs5)nn(-c5ccccc5)c4n3C)CC2)c1 | -8% | 1.3 | –
31 | CCOCCO/C(=N/C(=O)c1cccs1)NCc1ccc2c(c1)OCO2 | 0% | 0.02 | –
32 | O=C(NCCN1CCCCC1)c1ccc2c(c1)OCCO2 | -6% | 0.8 | –
33 | Cc1c(CN2CCC3(CC2)[C@H](O)C[C@@H]3O)cc(C#N)n1C | 3% | -0.5 | –
34 | CC(C)Cc1nc(NC(=O)CC[C@@H]2NC(=O)N(Cc3ccccc3Cl)C2=O)n[nH]1 | -3% | 0.43 | –
35 | C=CCNCc1cccc(OC)c1OCC(=O)NC(C)(C)C | 44% | -5.93 | –
36 | COc1cccc(-c2nc3ccc(-c4ccccc4)cn3c2CN2CCN(S(=O)(=O)c3ccccc3OC)CC2)c1 | -3% | 0.34 | –
37 | CN1CCCN(c2ccc(NC(=O)c3nn(-c4ccccc4)c(=O)c4ccccc34)cc2F)CC1 | 82% | -6.28 | –
38 | Cc1cc(N2CCC(c3nnc(CN4CCC(O)CC4)n3C)CC2)ncn1 | 1% | -0.12 | –
39 | CC1(CNC(=O)N2CCC[C@]3(CC=CCC3)C2)COC1 | -8% | 0.89 | –
40 | CCc1nc(Cn2cnc(-c3ccccc3)c2-c2cc(CN(C)C)cs2)no1 | -8% | 1.45 | –
41 | CC(C)[C@H](NC(=O)c1ccccn1)c1nc2ccccc2n1C(C)C | – | – | -10% and 0%
42 | c1cncc(CNc2cnc3ccccc3c2)c1 | -16% | 1.59 | –

Row | SMILES | % Inhibition | Z score | % Inhibition (2 µM)
43 | COC(=O)c1cc(CNc2ccc3[nH]ncc3c2)c[nH]1 | -10% | 1.19 | –
44 | Cc1cccc(N2CCN(C(=N)NS(=O)(=O)c3ccc(F)cc3)CC2)c1C | -15% | 2.36 | –
45 | Cc1ccccc1OS(=O)(=O)Cc1ccon1 | -6% | 0.9 | –
46 | O=C(c1conc1C1CC1)N1C2COCC1C2 | -12% | 1.08 | –
47 | CCCN1C(=O)c2ccccc2NC12CCCCC2 | 2% | -0.29 | –
48 | COc1ccccc1-c1n[nH]cc1CN1CCCN(S(C)(=O)=O)[C@H](c2ccccc2)CC(=O)NCC1 | -4% | 0.53 | –
49 | Cc1ccn(C2CCN(C(=O)C(C)(C)c3c[nH]cn3)CC2)n1 | -6% | 1.19 | –
50 | COc1ccc(S(=O)(=O)N[C@H]2[C@H](O)[C@H](O)C[C@@H]2c2ccccc2C)cc1 | 14% | -1.67 | –
51 | CC1CCC(O)C(C2CCCN2CC(C)CS(C)(=O)=O)C1 (configuration not stated) | -5% | 0.85 | –
52 | Cc1cc(CNC(=O)N2CC(C)(C)C[C@H]2c2ccccc2)on1 | -8% | 0.92 | –
53 | O=C(N1CCCN(C2CCC2)CC1)C1(c2ccccc2)CCOCC1 | -14% | 2.36 | –
54 | C[C@H](NCc1ncnn1C(C)(C)C)c1cccc(C2CC2)c1 | -5% | 0.84 | –
55 | Nc1ccc(OCc2ccc(COc3ccc(N)cc3)cc2)cc1 | -9% | 1.14 | –
56 | O=C1COCC(=O)N1C1CCN(S(=O)(=O)CCc2ccccc2)CC1 | 5% | -0.69 | –
57 | CN1CCN(CC(=O)N2CCCc3ccccc32)CC1 | -3% | 0.5 | –
58 | O=C(COc1ccc2ccccc2c1)N1CCC(C(=O)N2CCCCCC2)CC1 | -5% | 0.77 | –
59 | O=C(CN1CCc2cncnc2C1)N1CCCc2ccccc21 | -5% | 0.77 | –
60 | O=C(Nc1ccc(F)cc1)c1c(O)c2cnn(-c3ccc(F)cc3)c2[nH]c1=O | -14% | 1.87 | –
61 | COCCc1noc([C@H](C)NC(=O)CN2CCN(C)C2=O)n1 | -12% | 1.05 | –
62 | CCCn1c(C)nnc1Cn1cnc(C#N)n1 | 2% | -0.18 | –
63 | CN(C)c1cnc(C(=O)NC(C)(C)c2nnc3n2CCCC3)cn1 | -10% | 1.42 | –

Row | SMILES | % Inhibition | Z score | % Inhibition (2 µM)
64 | O=C(Nc1cccc2[nH]ccc12)N(CCO)C1CC1 | -11% | 1.08 | –
65 | CCOc1ccc(-c2cc(C(F)(F)F)nn2-c2nc(-c3ccc(F)cc3)cs2)cc1 | 0% | 0.04 | –
66 | CCCCC[n+]1ccc(N2C(=O)c3ccccc3C2=O)cc1 | -3% | 0.42 | –
67 | CC(NC(=O)OC(C)(C)C)C(Cc1ccccc1)OC(=O)c1cnn2cccnc12 (configuration not stated) | -6% | 1.01 | –
68 | O=C(c1cncc(N2CCC[C@H](c3ccn(CCO)n3)C2)n1)N1CCOCC1 | -8% | 0.97 | –
69 | O=C(c1cc(-c2ccc(F)cc2)n[nH]1)N1CCCCC[C@H]1c1cccc(F)c1 | -10% | 1.44 | –
70 | Clc1cccc(CN2CCCn3cccc3[C@H]2c2cccc(Oc3ccccc3)c2)c1 | -18% | 1.71 | –
71 | CCc1ccc(CCC(=O)N2CCC[C@@]3(CNC(=O)O3)C2)cc1 | 8% | -1.17 | –
72 | N=C(N)NCc1ccccc1C(F)(F)F | -4% | 0.45 | –
73 | CCn1nc(C2CCOCC2)nc1-c1ccc(-n2cnnc2)cc1 | -6% | 0.92 | –
74 | COc1cccc(Cn2nnc3cc(C(=O)N4CCN(c5cc(C)ccc5C)CC4)ccc32)c1 | -8% | 0.83 | –
75 | FC1(F)CC(Nc2cncc(-n3cccn3)n2)C1 | 6% | -1.13 | –
76 | CC(C)N(CC(N)=O)Cc1cc(Cl)ccc1OCc1cccnc1 | -1% | 0.13 | –
77 | CCC(Cc1ccc(F)cc1)NC(=O)N1CCC[C@@H]1CS(C)(=O)=O (some centres not stated) | -10% | 1.86 | –
78 | Cc1cccc2c1ccn2CC(=O)N=c1[nH]c2ccccc2[nH]1 | 6% | -0.9 | –
79 | Cc1ccc(OCc2ccc(C(=O)N(C)C[C@H](C)c3nnn[nH]3)o2)c(C)c1 | -8% | 0.98 | –
80 | O=C(NC[C@@H]1COc2ccccc2C1)c1cnc2ccccn12 | -7% | 0.89 | –
81 | Cc1cccc(C2C(C(=O)NCc3cccnc3)c3ccccc3C(=O)N2C2CC2)c1 (configuration not stated) | -10% | 0.97 | –
82 | O=C(Cc1ccccc1)N(Cc1ccco1)C1CCOCC1 | -10% | 1.51 | –
83 | CCCC(NCC1(C)CCC(=O)N1)C1CCCC1 (configuration not stated) | -10% | 1.05 | –
84 | CC(C)[C@H](CCO)NC(=O)c1ccc(NCCc2ccccn2)cc1 | -9% | 1.22 | –
